# In the RNAGym collection of RNA variant scans (doi:10.1093/nar/gkz1192):
# Read counts are not given, so values of variants with three or more changes are uncertain.
# B1: CPEB3 Ribozyme (parent)
# chain: UAACAGGGGGCCACAGCAGAAGCGUUCACGUCGCAGCCCCUGUCAGAUUCUGGUGAAUCUGCGAAUUCUGCUGUAUAUCUC
# Variants of: B1
# Test: self-cleavage, relative activity (ratio to wild type); higher = more cleavage; in vitro, sequencing
# Summary of the method: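 Barcoded CPEB3 ribozyme mutants, produced by rounds of error-prone PCR, self-cleaved while being transcribed with T7 RNA polymerase for 5 hours at 37°C and during a subsequent 15 min DNase I step before EDTA was added. Sequencing of template-switched cDNA on Illumina gave cleaved and total reads, and DNA sequencing assigned barcodes to variants. Each variant's relative activity is its cleaved/total read fraction divided by the unmutated ribozyme's fraction, averaged across three batches. A variant needed a minimum of 5 reads.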
row,Variant,self-cleavage
1,A28G A47G A77U,0.78
2,A28C A45G U60C U66G,0.35
3,A28G U41C U69C,0.14
4,A28G A45G A47U U49C G70A A77U,0.13
5,A28G U54C A64G,0.32
6,A28G U49C U76A,0.1
7,A28C U41C A45G U80C,0.33
8,A28G U43C G52C,0.37
9,A28G U31C C44U,0.17
10,A28G U43C A47G C62U A65U U72C,0.09
11,A28G U31A U60A U76C A77G,0.09
12,A28G U43A U72C,0.75
13,A28G U31G U60C,0.19
14,A28G U43A G52U,1.01
15,A28G U31A C38U A56U,0.19
16,A28G U41A C50A,0.18
17,A28G U54G G63U U74A,1.03
18,A28G A47U A64U,0.29
19,A28G U54A G61A A65G U69A G70A U72C,0.12
20,A28G U43G U58C,0.4
21,C27A U51A A57G,0.16
22,A28G C39A U51G,0.24
23,A28G G36C U49A U69A,0.11
24,C27U U31C U49C U67C,0.1

row,Variant,self-cleavage
1,A28G C59U U60A U69A,0.11
2,A28G U43C U49A U60G C62U U72C,0.05
3,A28G C40U G53C A77C U78G,0.19
4,A28G U41C A47G A64G,0.26
5,A28G U31C C37U U41C C62U U76G,0.07
6,A28G C37G A64U,0.21
7,A28G A47G U60C,0.12
8,A28C U31C G33A U49C,0.1
9,A28G U60C U66C U72C,0.13
10,A28G G42A A45U U48A U67C,0.04
11,A28G G52A G63U,0.32
12,A28G C59A G70A,0.13
13,A28G U31G G70A,0.3
14,A28G A56G C68U,0.26
15,A28G G52A U58A U67A,0.13
16,A28G A45U U48C G63A,0.16
17,A28C A45G A56G,0.42
18,A28C U43A A64G,0.35
19,A28G A45G U72G U74A U76C,0.22
20,A28G A47U U72C,0.29
21,A28G U48C U69A,0.2
22,A28G U48C U69C,0.2
23,C27A U58C U69C A75U,0.11
24,A28C G63A U72C,0.23

row,Variant,self-cleavage
1,A28G C32A A35G U78C,0.21
2,A28G G42C U72C U78G,0.29
3,C27U U41C A64G U66C A77U,0.07
4,A28G C39U A56G,0.16
5,A28G A45U U51C A64G U80A,0.06
6,A28G G52U A64G,0.54
7,A28C U43A A65G,0.35
8,A28G U31C G42U,0.12
9,A28G U54G U67A,0.16
10,A28G C32A U41A A45U G61A U78A,0.09
11,A28G C29G A57C,0.24
12,C27U G52C U74C,0.3
13,C27U A47G U49A U51C,0.12
14,A28G U31A A35U U74C,0.09
15,C27U U54C U67A,0.13
16,A28G A47G U48A A56U U66C U78C,0.16
17,A28G U41A U69C U72C A77G,0.14
18,A28G U48C A56U,0.12
19,A28G U54G A64G A65U,0.17
20,A28G A56U C62G,0.07
21,A28G A56G A64U U76A,0.12
22,A28C U41C G46A U48G,0.19
23,A28G A56G U69C U78C,0.08
24,A28G A35U A57U,0.12

row,Variant,self-cleavage
1,A28G A45U C59A,0.05
2,A28G A35G U41C,0.63
3,A28G A57U A77G,0.2
4,A28G C40U U54C U69C,0.1
5,A28C C39U A56G U80A,0.18
6,A28C A45U U54C,0.1
7,A28C U49A U54C U74C,0.54
8,A28G A45U U60C A64U,0.12
9,A28G U60C U74A,0.36
10,A28G U48C A57G A64G A65C G70C A75U,0.05
11,A28G U49A U54G U58C,0.2
12,A28G A56G U67C C79U,0.04
13,A28C A45U A56G A75G,0.16
14,A28G U51C U78C,0.54
15,A28G U41A A64U,0.27
16,A28G U49C A75U,0.41
17,C27A U31C A56G A64G,0.26
18,A28G C38U U54C C62G A64U,0.1
19,A28G C40U U51A A64U,0.2
20,A28G G46U A47G A57G U78C,0.13
21,A28G A45G A47G U67G,0.07
22,A28G C37U A65C,0.05
23,C27U A45G A47G C71U U72C,0.06
24,A28G A35U U60G A64G C81U,0.1

row,Variant,self-cleavage
1,A28G U31C A57G,0.39
2,A28G C29U U48C,0.4
3,A28G G46A A65G A75U U80A,0.1
4,A28G U48C U51G G52A G53A,0.19
5,A28C A35G U51C C81U,0.69
6,C27U A56U U74C,0.12
7,A28G U48A U49C,0.15
8,A28G U31C C37A,0.1
9,A28G A57G U67C,0.16
10,A28C U74G A75U,0.74
11,A28C A35U U41C U54C A64G U66C,0.14
12,A28G A64G U78A,0.37
13,C27U A28G C40A A56U A64G,0.17
14,A28G C40U U41C G55A C81U,0.44
15,A28G C38U A45U U49A,0.06
16,A28G U51A U76C,0.64
17,A28G A35U A64G U67C,0.24
18,A28G A35U U54C U80A,0.15
19,A28G A35G A75G,1.25
20,A28G C29U A64U A77U,0.13
21,A28G A35G U54A,1.19
22,A28G U54C C79U,0.8
23,A28G G52A U69C,0.33
24,A28G A45C U58A,0.37

row,Variant,self-cleavage
1,A28G C29G A64G,0.42
2,A28G G46U U66C U69A,0.04
3,A28G C40U U58C C59A,0.14
4,A28G A45U U80A,0.33
5,A28G A64U A77U,0.1
6,A28G A35U C38U A47G C59G,0.07
7,A28G A35U G46C U58G U60C,0.09
8,C27A U69A U72A,0.37
9,A28G C29U A35G,0.5
10,A28G A64G U67C U78C,0.12
11,A28G U41C U66C U69C U78C,0.12
12,A28C A35U U67C,0.12
13,A28G U31C A35G A57U U78G,0.61
14,A28G A45G U78C,0.31
15,A28G U41C C59A,0.12
16,A28G U41C C59G,0.21
17,C27U U72C U76C,0.16
18,A28G U41C G70U,0
19,A28G A47G U54A C62A U76C,0.05
20,A28G C39A A45U U60A A64G,0.12
21,A28C U31C U67A U78C,0.1
22,A28G G30A A57G,0.1
23,A28G U31A U49G U69A U74C,0
24,A28G A45G U80C,0.58

row,Variant,self-cleavage
1,A28G U60C A64G,0.38
2,C27G A35U C37U U49C A57G,0.04
3,A28G U41G U43C A45G A75U,0.05
4,A28G G33C U80C,0.22
5,C27U G53A A57U,0.22
6,A28G C40U U58G,0.17
7,A28G U31C A35U A57G U69C,0.12
8,C27G C37G U51C U78A,0.09
9,A28G G30U G70C,0.13
10,A28G G30U A45U C50A U60A A64C,0.05
11,A28C U43A U60C,0.22
12,C27G U54C U80C,0.26
13,A28G A35U G53A,0.21
14,A28G U43C U49A U60C C62U U76G,0.03
15,A28G A57U U78C,0.25
16,A28G U51A U60C U67A,0.09
17,A28G U49C U72C,0.14
18,A28G G30A G53A,0.1
19,A28G A45U U49A C71A,0.15
20,A28G A35G C59G,0.23
21,A28G A35G C59A,0.25
22,A28C U51C U78C,0.4
23,C27G U60C A64G A77G,0.05
